These results are taken from PubChem BioAssay AID463173 (ICCB-Longwood Screening Facility, Harvard Medical School, 2010).

Out of some 52,000 compounds screened, about 1,700 (3.3%) were called active. Rule as the data show it: active = survival mostly below about 52% (no sharp cut-off); inactive = mostly above about 56%. This is one part of the list.

The test system of the test is Wild type. Description: S. aureus survival, RN4220 and DeltatarO strains – OD600, teichoic acid synthesis inhibitors, primary screen (AID 463173). The following applies: S. aureus RN4220 wild type/DeltatarO growth, OD600, 18 h, hits give low values, screened at 18.75 µg/mL (by protocol).
Consider `Cc1c(Cl)cccc1NC(=O)CSc1ncc(S(=O)(=O)c2ccc(C(C)C)cc2)c(=O)[nH]1`, for which the survival is inactive: 84%.
Consider `Cc1cc(C)cc(NC(=O)c2ccc3c(O)c(S(=O)(=O)c4ccccc4)c(=O)[nH]c3c2)c1`, for which the survival is inactive: 91%.
Turning to `CCC(=O)Nc1ccccc1-c1nnn(CC(=O)N2c3ccccc3CC2C)n1` (centres undefined), the survival is inactive: 102%.
`CCOC(=O)c1c(C)[nH]c(C)c1S(=O)(=O)N1CCCC(C(=O)Nc2ccc(C)c(N(C)C)c2)C1` (centres undefined): the survival is inactive: 79%.
For the molecule `CCOC(=O)c1[nH]c(C)c(CCC(=O)NCc2cccc(C)c2)c1C`, the survival was inactive: 105%.
As to `Cc1ccc(OCC(=O)N(Cc2ccco2)c2ccccn2)cc1`, the survival is inactive: 80%.
Turning to `CCNC(=O)C1CCCN(c2nnc(C)c3c(C)n(-c4ccc(C)cc4)nc23)C1` (centres undefined), the survival was inactive: 83%.
On to `CCCCOC(=O)c1ccc(NC(=O)Cc2coc3c(C)c(C)ccc23)cc1`, for which the survival was inactive: 109%.
As for `COC(=O)c1ccccc1NC(=O)C1(c2cccs2)CCOCC1`, the survival is inactive: 89%.
As for `Cc1cccc(CNC(=O)CN2C(=O)C3CCCCN3c3ccc(C(=O)N4CCCC4)cc32)c1` (centres undefined), the survival was inactive: 75%.
With `Oc1c(C(c2ccccc2Cl)N2CCOCC2)sc2nc(-c3ccco3)nn12` (centres undefined) the figure was active: -2%; with `CCC(=O)N1CCc2cc(CNC(=O)Nc3cc(C)ccc3C)ccc21`, inactive: 77%.
Turning to `Cc1ccc(C(=O)N2CCN(c3ccc(F)cc3)CC2)cc1NC(=O)c1nsc2ccccc12`, the survival was inactive: 87%.
In the case of `Cc1ccc(-c2nnc(Nc3ccc(Cl)c(Cl)c3)c3ccccc23)cc1S(=O)(=O)N(C)C`, the survival was inactive: 84%.
Take `COc1ccc(CCNS(=O)(=O)c2ccc(F)c(C(=O)Nc3ccc(Cl)cc3)c2)cc1OC`: the survival is inactive: 126%.
In the case of `COc1ccc(CCN2C(=O)CN=C2Nc2ccc(F)cc2)cc1OC`, the survival was inactive: 98%.
Turning to `CC(=O)N1CCN(c2nc3c(C)ccc(Cl)c3s2)CC1`, the survival was inactive: 74%.
Take `CC(=O)c1cccc(NC(=O)Cn2c(=O)oc3cc(S(=O)(=O)NC4CCCC4)ccc32)c1`: the survival was inactive: 82%.
Consider `NNC(=O)CCC(=O)Nc1ccccc1`, for which the survival was inactive: 112%.
`CC(=O)c1ccc(Nc2nc3ccccc3nc2-n2nc(C)cc2C)cc1`: the survival was inactive: 54%.
With `Cc1ccc(C)c(Cn2c3ccccc3c3cnn(CC(=O)NCC(C)c4ccccc4)c(=O)c32)c1` (centres undefined) the figure was inactive: 86%; with `COc1cccc(NC(=O)CSc2nccn2Cc2ccc3c(c2)OCO3)c1`, inactive: 82%.
`Cc1nc(-n2nc(C)c(Cc3ccc(Cl)cc3)c2C)sc1C(=O)N1CCCCC1C` (centres undefined): the survival was inactive: 126%.
As for `CCOC(=O)C1=NN(c2ccc(C)cc2)CC1C(=O)OC` (centres undefined), the figure is inactive: 101%; as for `CCC(C)(C)N1CC(=O)N(Cc2ccccc2)C(c2ccc(OC)cc2)C1=O` (centres undefined), inactive: 105%; as for `O=C(CSCc1ccccc1Cl)NCc1ccc(Cl)c(Cl)c1`, inactive: 148%.
Consider `CCC1(CC)C(=O)N(C)C(=O)NC1=Nc1ccccc1`, for which the survival is inactive: 114%.
With `O=c1[nH]c2ccc(NCc3ccc(-c4ccc(Cl)cc4)o3)cc2[nH]1` the figure was inactive: 111%; with `CCOc1ccccc1Nc1nc(-c2ccc(C)cc2)c(CC(=O)O)s1`, inactive: 71%.
As for `COc1ccc(C2c3c(oc4ccc(Cl)cc4c3=O)C(=O)N2CCCN(C)C)cc1OC` (centres undefined), the figure is inactive: 71%; as for `COc1cccc(CNC(=O)CN2C(=O)N(c3c(C)cccc3C)S(=O)(=O)c3ccccc32)c1OC`, inactive: 67%.
As to `Nc1nnc(SCC(=O)N2CCN(c3ccccc3)CC2)s1`, the survival was inactive: 113%.
Regarding `COc1ccc(OC)c(NC(=O)C(C)n2nc(C)c3c(C)n(-c4ccccc4)nc3c2=O)c1` (centres undefined), the survival is inactive: 74%.
Turning to `Cc1ccc(NC(=O)CN2C(=O)CC(c3ccc(F)cc3)=Nc3ccccc32)cc1F`, the survival was inactive: 83%.
As to `COc1ccc2c(c1)CCc1c(C(=O)Nc3c(C)nn(Cc4ccc(Cl)cc4)c3C)noc1-2`, the survival is inactive: 64%.
In the case of `CCOc1ccc(NC(=O)Cn2nnc(C(=O)NCc3cccs3)c2N)cc1`, the survival was inactive: 97%.
With `Cc1cccc(C)c1NC(=O)CCS(=O)(=O)c1ccc2c(c1)CC(C)N2C(=O)C1CC1` (centres undefined), the survival was inactive: 55%.
Turning to `COc1ccc(/C=C\c2onc(C)c2S(=O)(=O)N2CCC(C(=O)Nc3cccc(C)c3C)CC2)cc1`, the survival is inactive: 76%.
Consider `CCOC(=O)c1cccc(NC(=O)CCc2c(C)nn(-c3ccc(N4CCCC4)nn3)c2C)c1`, for which the survival is inactive: 66%.
As for `Cc1ccc(OCC(=O)NCC2(N3CCOCC3)CCCCC2)cc1C`, the figure is inactive: 104%; as for `Cc1ccc(-c2nc3ccccc3s2)cc1NC(=O)COc1ccccc1`, inactive: 75%.
For the molecule `CCOc1ccc(/C=C/c2nc(C#N)c(N3CCCCC3)o2)cc1`, the survival was inactive: 77%.
For `CCCN(CCC)CCNC(=O)CN1C(=O)COc2ccc(S(=O)(=O)N3CCC(C)CC3)cc21`, the survival is inactive: 80%.
With `CCCCN(CCCC)CCNC(=O)c1cn(CC)c2ccc(S(=O)(=O)N3CCc4ccccc4C3)cc2c1=O` the figure was inactive: 84%.
With `Cc1oc(-c2cccc(Cl)c2)nc1CN1CCC(C(=O)NCCCN2CCN(c3ccccc3F)CC2)CC1` the figure was inactive: 82%; with `CCOC(=O)Cn1nc(-c2ccccc2)c2cnc3ccc(OCC)cc3c21`, inactive: 105%; with `C=C(C)c1cccc(C(C)(C)NC(=O)NCc2cccnc2)c1`, inactive: 114%.
For the molecule `O=C(CN(CCc1ccccc1)S(=O)(=O)c1ccc(Br)cc1)NCc1ccc(Cl)cc1`, the survival is inactive: 132%.
With `CCC1CN(C(=O)C2CCN(S(=O)(=O)c3c(C)noc3/C=C/c3ccccc3F)CC2)c2cc(Cl)ccc2O1` (centres undefined) the figure was inactive: 71%; with `COc1ccc(N(Cc2cccs2)C(=O)c2ccc(Br)o2)cc1`, inactive: 84%.
As for `COc1ccc(NC(=O)C2CCCN(S(=O)(=O)c3ccc4c(c3)CCCC(=O)N4)C2)cc1OC` (centres undefined), the figure is inactive: 79%; as for `Cc1ccc2c(=O)cc(C(=O)Nc3ccc(S(=O)(=O)Nc4nc(C)cc(C)n4)cc3)oc2c1`, inactive: 99%.
Turning to `CC(=O)N1C(O)CCN1c1ccccc1` (centres undefined), the survival was inactive: 114%.
As for `CCc1ccc(NC(=O)CSC2=Nc3ccccc3C3=NC(CC(=O)NC4CCCCC4)C(=O)N23)cc1` (centres undefined), the survival is inactive: 88%.
Consider `CCc1cc2c(=O)n(-c3ccccc3)cnc2s1`, for which the survival is inactive: 98%.
Take `CCOc1cc(C2C(C(=O)Nc3ccc(OC)cc3)=C(C)Nc3nc(SC)nn32)ccc1O` (centres undefined): the survival was inactive: 164%.
In the case of `O=C(C1CCN(c2ncnc3c2nc2n3CCCCC2)CC1)N1CCN(c2ccc(F)cc2)CC1`, the survival is active: -3%.
As to `COC(=O)C1C(O)=C(C=Nc2ccccc2)C(=O)CC1(C)C` (centres undefined), the survival was inactive: 126%.
For the molecule `O=C(c1ccco1)n1nc(-c2ccc(Cl)cc2)nc1NCc1ccccc1`, the survival is inactive: 74%.
As for `Cc1ccc(N2C(=O)NC(NS(=O)(=O)c3ccc(Cl)cc3)(C(F)(F)F)C2=O)cc1C` (centres undefined), the survival is inactive: 87%.
With `C/C=N/N(c1ccccc1)c1ccccc1`, the survival is inactive: 96%.
In the case of `CCc1ccc(NC(=O)Cn2c(=O)n(Cc3nc(-c4ccccc4)no3)c(=O)c3cc4c(cc32)OCO4)cc1`, the survival is inactive: 89%.
As to `COc1ccc(S(=O)(=O)N2CCC(c3ccncc3)CC2)cc1OC`, the survival is inactive: 120%.
For the molecule `CCC(Sc1ncnc2sc3c(c12)CCCC3)C(=O)OC(C)C` (centres undefined), the survival was active: -2%.
On to `CCCC(=O)N1CC(=O)Nc2ccc(Cl)cc2C1c1ccccc1` (centres undefined), for which the survival was inactive: 71%.
With `Cc1cccc(C(=O)Nc2ccc(C(=O)OCc3cc(=O)n4nc(C5CC5)sc4n3)cc2)c1` the figure was inactive: 71%; with `COc1ccccc1N1CCN(C(=O)CCc2nnc3n(C)c(=O)c4sccc4n23)CC1`, inactive: 134%.
Consider `COc1ccc(CC(=O)NC2CCN(S(=O)(=O)c3ccccc3C(=O)O)CC2)cc1OC`, for which the survival was inactive: 113%.
In the case of `COc1ccc(S(=O)(=O)NCC(c2ccc(N(C)C)cc2)N2CCc3ccccc32)cc1` (centres undefined), the survival is inactive: 73%.
For the molecule `CC1CC(CN)CC(CO)C1` (centres undefined), the survival was inactive: 108%.
As to `COCCNC(=O)CSc1cn(CC(=O)N2CCCCCC2)c2ccccc12`, the survival is inactive: 90%.
As for `CSc1ccc(CCNC(=O)Cn2ncc3c(=O)oc4ccccc4c32)cc1`, the figure is inactive: 80%.
Take `Cc1ccc(NC(=O)C2CCCN2S(=O)(=O)c2ccc3nc(-c4ccccc4)[nH]c3c2)cc1F` (centres undefined): the survival was inactive: 70%.
Take `CCOc1ccc(OCC)c(NC(=O)C2CCN(S(=O)(=O)c3cn(C)cn3)CC2)c1`: the survival was inactive: 121%.
With `Cc1nn(C)cc1C(C(=O)NC1CCCCC1)N(CCc1ccccc1)C(=O)c1cnccn1` (centres undefined), the survival is inactive: 111%.
With `O=C(CCN1CCOCC1)N1N=C(c2ccccc2)CC1c1ccco1` (centres undefined) the figure was inactive: 104%; with `Cc1ccc(C)c(CSc2ccc3nnc(CCNS(=O)(=O)c4ccccc4)n3n2)c1`, inactive: 85%; with `O=C(O)CN1CC(=O)NC1=O`, inactive: 96%.
`COc1ccc(OC)c(Nc2ncnc3c2cnn3-c2cccc(Cl)c2)c1`: the survival is inactive: 64%.
In the case of `Cc1ccn2c(Nc3ccc(F)cc3)c(-c3ccccn3)nc2c1`, the survival is inactive: 79%.
`O=C(Cn1nc(-c2ccccc2)nc(Cc2ccccc2)c1=O)Nc1ccccc1`: the survival is inactive: 72%.
Turning to `CCCCC(=O)OC1=C(C(C)=O)N(Cc2ccccc2)S(=O)(=O)c2ccccc21`, the survival is inactive: 71%.
With `CCN(CC)CCNC(=O)C1CCN(c2cc(C)nc3c(-c4ccc(Cl)cc4)c(C)nn23)CC1`, the survival was inactive: 118%.
For `Cc1ccc(NS(=O)(=O)c2cnc(N)nc2)c(C)c1`, the survival was inactive: 55%.
With `O=C(NCCc1nc2ccccc2n1Cc1ccccc1)c1ccco1` the figure was inactive: 121%; with `Nc1nsnc1C(=O)NCCO`, inactive: 92%.
Regarding `CCc1nn(CC(=O)Nc2cc(C)cc(C)c2)c(=O)c2cc3sccc3n12`, the survival is inactive: 69%.
Turning to `Cc1nc(-n2nc(C)c(Cc3ccc4c(c3)OCO4)c2C)sc1C(=O)Nc1cccc(Cl)c1`, the survival is inactive: 75%.
With `CCN(CC)CCNC(=O)c1cc(-c2ccc(Br)s2)nc2ccccc12` the figure was inactive: 35%.
